# The other results are listed elsewhere or left out.
# B1: Mindin (Homo sapiens), Q9BUD6 (protein)
# chain: MENPSPAAALGKALCALLLATLGAAGQPLGGESICSARALAKYSITFTGKWSQTAFPKQYPLFRPPAQWSSLLGAAHSSDYSMWRKNQYVSNGLRDFAERGEAWALMKEIEAAGEALQSVHEVFSAPAVPSGTGQTSAELEVQRRHSLVSFVVRIVPSPDWFVGVDSLDLCDGDRWREQAALDLYPYDAGTDSGFTFSSPNFATIPQDTVTEITSSSPSHPANSFYYPRLKALPPIARVTLVRLRQSPRAFIPPAPVLPSRDNEIVDSASVPETPLDCEVSLWSSWGLCGGHCGRLGTKSRTRYVRVQPANNGSPCPELEEEAECVPDNCV
# Experiments:
# Assay in all cases: glycan array binding signal (z-score within array); higher = stronger binding
# Conditions in all cases: glycan notation: IUPAC condensed, linker removed
# Fuc(a1-4)GlcNAc = target: Fuc(a1-4)GlcNAc
# How it was run: (§1)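 Columns mapping to the same glycan were averaged after glycan names were converted to IUPAC-condensed notation. The data come from 3228 arrays in the Consortium for Functional Glycomics database, limited to those with an available protein sequence. Binding is reported as a within-array Z-score averaged across arrays of one protein sequence and across linkers.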
# Fuc(b1-3)GlcNAc = target: Fuc(b1-3)GlcNAc
# How it was run: as §1
# Gal(a1-2)Gal = target: Gal(a1-2)Gal
# How it was run: as §1
# Gal(a1-3)Gal = target: Gal(a1-3)Gal
# How it was run: as §1
# Gal(a1-3)Gal(b1-3)GlcNAc = target: Gal(a1-3)Gal(b1-3)GlcNAc
# How it was run: as §1
# Gal(a1-3)Gal(b1-4)Glc = target: Gal(a1-3)Gal(b1-4)Glc
# How it was run: as §1
# Gal(a1-3)Gal(b1-4)GlcNAc = target: Gal(a1-3)Gal(b1-4)GlcNAc
# How it was run: as §1
# [1] = target: Gal(a1-3)Gal(b1-4)[Fuc(a1-3)]GlcNAc
# How it was run: as §1
# Gal(a1-3)GalNAc = target: Gal(a1-3)GalNAc
# How it was run: as §1
# [2] = target: Gal(a1-3)[Gal(a1-4)]Gal(b1-4)GlcNAc
# How it was run: as §1
# Gal(a1-4)Gal(b1-4)Glc = target: Gal(a1-4)Gal(b1-4)Glc
# How it was run: as §1
# Gal(a1-4)Gal(b1-4)GlcNAc = target: Gal(a1-4)Gal(b1-4)GlcNAc
# How it was run: as §1
# Gal(a1-4)GlcNAc = target: Gal(a1-4)GlcNAc
# How it was run: as §1
# Gal(a1-6)Glc = target: Gal(a1-6)Glc
# How it was run: as §1
# Gal(b1-2)Gal = target: Gal(b1-2)Gal
# How it was run: as §1
# Gal(b1-3)Gal = target: Gal(b1-3)Gal
# How it was run: as §1
# Gal(b1-3)GalNAc = target: Gal(b1-3)GalNAc
# How it was run: as §1
# [3] = target: Gal(b1-3)GalNAc(b1-3)Gal(a1-4)Gal(b1-4)Glc
# How it was run: as §1
# [4] = target: Gal(b1-3)GalNAc(b1-4)Gal(b1-4)Glc
# How it was run: as §1
# [5] = target: Gal(b1-3)GalNAc(b1-4)[Neu5Ac(a2-3)]Gal(b1-4)Glc
# How it was run: as §1
# Gal(b1-3)GlcNAc = target: Gal(b1-3)GlcNAc
# How it was run: as §1
# [6] = target: Gal(b1-3)GlcNAc(b1-3)Gal(b1-3)GlcNAc
# How it was run: as §1
# [7] = target: Gal(b1-3)GlcNAc(b1-3)Gal(b1-4)Glc
# How it was run: as §1
# [8] = target: Gal(b1-3)GlcNAc(b1-3)Gal(b1-4)GlcNAc
# How it was run: as §1
# [9] = target: Gal(b1-3)[Fuc(a1-4)]GlcNAc
# How it was run: as §1
# [10] = target: Gal(b1-3)[Fuc(a1-4)]GlcNAc(b1-3)Gal(b1-3)[Fuc(a1-4)]GlcNAc
# How it was run: as §1
# [11] = target: Gal(b1-3)[Fuc(a1-4)]GlcNAc(b1-3)Gal(b1-4)GlcNAc
# How it was run: as §1
# [12] = target: Gal(b1-3)[Fuc(a1-4)]GlcNAc(b1-3)Gal(b1-4)[Fuc(a1-3)]GlcNAc
# How it was run: as §1
# [13] = target: Gal(b1-3)[GlcNAc(b1-6)]GalNAc
# How it was run: as §1
# [14] = target: Gal(b1-3)[Neu5Ac(a2-6)]GalNAc
# How it was run: as §1
# [15] = target: Gal(b1-3)[Neu5Ac(a2-6)]GlcNAc(b1-6)Gal(b1-4)Glc
# How it was run: as §1
# [16] = target: Gal(b1-3)[Neu5Ac(b2-6)]GalNAc
# How it was run: as §1
# [17] = target: Gal(b1-4)GalNAc(a1-3)[Fuc(a1-2)]Gal(b1-4)GlcNAc
# How it was run: as §1
# [18] = target: Gal(b1-4)GalNAc(b1-3)[Fuc(a1-2)]Gal(b1-4)GlcNAc
# How it was run: as §1
# Gal(b1-4)Glc = target: Gal(b1-4)Glc
# How it was run: as §1
# Gal(b1-4)Glc6S = target: Gal(b1-4)Glc6S
# How it was run: as §1
# Gal(b1-4)GlcNAc = target: Gal(b1-4)GlcNAc
# How it was run: as §1
# [19] = target: Gal(b1-4)GlcNAc(b1-2)Man(a1-3)[Gal(b1-4)GlcNAc(b1-2)Man(a1-6)]Man(b1-4)GlcNAc(b1-4)GlcNAc
# How it was run: as §1
# [20] = target: Gal(b1-4)GlcNAc(b1-3)Gal(b1-3)GlcNAc
# How it was run: as §1
# [21] = target: Gal(b1-4)GlcNAc(b1-3)Gal(b1-4)Glc
# How it was run: as §1
# [22] = target: Gal(b1-4)GlcNAc(b1-3)Gal(b1-4)GlcNAc
# How it was run: as §1
# [23] = target: Gal(b1-4)GlcNAc(b1-3)Gal(b1-4)GlcNAc(b1-3)Gal(b1-4)GlcNAc
# How it was run: as §1
# [24] = target: Gal(b1-4)GlcNAc(b1-3)Gal(b1-4)[Fuc(a1-3)]GlcNAc(b1-3)Gal(b1-4)[Fuc(a1-3)]GlcNAc
# How it was run: as §1
# [25] = target: Gal(b1-4)GlcNAc(b1-3)GalNAc
# How it was run: as §1
# [26] = target: Gal(b1-4)GlcNAc(b1-3)[Gal(b1-4)GlcNAc(b1-6)]GalNAc
# How it was run: as §1
binder,measurement,setting,value
B1,glycan array binding signal (z-score),Fuc(a1-4)GlcNAc,-0.291
same,glycan array binding signal (z-score),Fuc(b1-3)GlcNAc,-0.24
same,glycan array binding signal (z-score),Gal(a1-2)Gal,-0.306
same,glycan array binding signal (z-score),Gal(a1-3)Gal,-0.238
same,glycan array binding signal (z-score),Gal(a1-3)Gal(b1-3)GlcNAc,-0.194
same,glycan array binding signal (z-score),Gal(a1-3)Gal(b1-4)Glc,-0.092
same,glycan array binding signal (z-score),Gal(a1-3)Gal(b1-4)GlcNAc,-0.013
same,glycan array binding signal (z-score),[1],0.093
same,glycan array binding signal (z-score),Gal(a1-3)GalNAc,-0.235
same,glycan array binding signal (z-score),[2],0.454
same,glycan array binding signal (z-score),Gal(a1-4)Gal(b1-4)Glc,-0.229
same,glycan array binding signal (z-score),Gal(a1-4)Gal(b1-4)GlcNAc,-0.141
same,glycan array binding signal (z-score),Gal(a1-4)GlcNAc,-0.263
same,glycan array binding signal (z-score),Gal(a1-6)Glc,-0.311
same,glycan array binding signal (z-score),Gal(b1-2)Gal,-0.323
same,glycan array binding signal (z-score),Gal(b1-3)Gal,-0.294
same,glycan array binding signal (z-score),Gal(b1-3)GalNAc,-0.22
same,glycan array binding signal (z-score),[3],-0.31
same,glycan array binding signal (z-score),[4],-0.14
same,glycan array binding signal (z-score),[5],-0.024
same,glycan array binding signal (z-score),Gal(b1-3)GlcNAc,0.371
same,glycan array binding signal (z-score),[6],-0.279
same,glycan array binding signal (z-score),[7],-0.056
same,glycan array binding signal (z-score),[8],2.01
same,glycan array binding signal (z-score),[9],-0.309
same,glycan array binding signal (z-score),[10],-0.326
same,glycan array binding signal (z-score),[11],1.28
same,glycan array binding signal (z-score),[12],-0.156
same,glycan array binding signal (z-score),[13],-0.233
same,glycan array binding signal (z-score),[14],-0.262
same,glycan array binding signal (z-score),[15],0.95
same,glycan array binding signal (z-score),[16],-0.189
same,glycan array binding signal (z-score),[17],0.429
same,glycan array binding signal (z-score),[18],-0.171
same,glycan array binding signal (z-score),Gal(b1-4)Glc,-0.2
same,glycan array binding signal (z-score),Gal(b1-4)Glc6S,-0.055
same,glycan array binding signal (z-score),Gal(b1-4)GlcNAc,0.321
same,glycan array binding signal (z-score),[19],1.27
same,glycan array binding signal (z-score),[20],-0.378
same,glycan array binding signal (z-score),[21],0.918
same,glycan array binding signal (z-score),[22],0.322
same,glycan array binding signal (z-score),[23],0.792
same,glycan array binding signal (z-score),[24],0.429
same,glycan array binding signal (z-score),[25],0.959
same,glycan array binding signal (z-score),[26],2.02

# Reference: the supplement of paper PMC8728848
